# Measurements published in PubChem BioAssay (NCATS).
# Where “and” joins values, the source holds several entries; their conditions need not be identical. Identical values can stand only once. The shares of active, inactive and inconclusive entries below differ from those in the screen. For part of these data: Potencies of inconclusive entries are doubtful fits and often do not repeat. Calls of active or inactive are those of the source. Unless noted, calls follow the shape of the dose curve; as a rule, active = well fitted curve in the direction sought with a large enough effect; inconclusive = small, poorly fitted or top-dose-only effect, or another doubt; inactive = no such curve, though single readings can be large; an effect the other way counts as inactive or inconclusive.
# Experiments:
# [1] = qHTS of pediatric cancer cell lines to identify multiple opportunities for drug repurposing: Primary screen for A673 cells (AID 1347092); settings: A673 Ewing sarcoma viability, CellTiter-Glo ATP luminescence, 48 h; activity change, negative = cytotoxic: at 46 µM (top of the series); also: potency is read from the fitted curve at half-maximal effect; nearly all actives have a fitted effect of over 45% in size
# Summary of the method: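 Cells are plated, rested 5 h, dosed by pintool, incubated 48 h, then lysed with CellTiter-Glo and read by luminescence. DMSO is the neutral control; bortezomib at 2.3 uM final is the positive control.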
# [2] = qHTS of pediatric cancer cell lines to identify multiple opportunities for drug repurposing: Primary screen for SK-N-MC cells (AID 1347093); settings: SK-N-MC viability, CellTiter-Glo luminescence, 48 h; activity change, negative = cytotoxic: at 46 µM (top of the series); also: potency is read from the fitted curve at half-maximal effect
# Summary of the method: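 Metabolically active cells were quantified by ATP-dependent luminescence (CellTiter-Glo, 15 min at room temperature) following 48 h treatment. Cells had been plated at 500-1,000 per well and settled for 5 h beforehand.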
# [3] = qHTS of pediatric cancer cell lines to identify multiple opportunities for drug repurposing: Primary screen for BT-12 cells (AID 1347101); also: potency is read from the fitted curve at half-maximal effect; nearly all actives have a fitted effect of over 25% in size
# Summary of the method: (§1)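 Cells (500-1,000/well) rested 5 h, then received compounds for 48 h; metabolically active cells were measured by CellTiter-Glo luminescence. Final concentrations spanned up to 46 µM (MIPE, 11-point) or 0.59 nM-46 µM (NPC, 8-point) in primary screens, 11-point in follow-ups.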
# [4] = qHTS of pediatric cancer cell lines to identify multiple opportunities for drug repurposing: Primary screen for OHS-50 cells (AID 1347103); also: potency is read from the fitted curve at half-maximal effect; nearly all actives have a fitted effect of over 40% in size
# Summary of the method: as §1
# [5] = system: Zika virus NS2B-NS3 protease (linked construct); test: Primary screen NINDS Rhodamine qHTS for Zika virus inhibitors (AID 1347160); also: nearly all actives have a fitted effect of over 55% in size
# Summary of the method: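 Each compound, titrated, sat 15 min with 25 nM linked protease before 1.5 microM Rhodamine110 substrate went in. Fluorescence gain over the next 15 min, in pH 8.0 Tris with Tween 20, gave Hill-fitted curves.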
# [6] = biological target: Cytochrome P450 2D6 (Homo sapiens) (UniProt P10635); test: Cytochrome P450 family 2 subfamily D member 6 (CYP2D6) small molecule antagonists: luciferase biochemical (cell-free) qHTS assay (AID 1645840; active = well fitted curve in the direction sought with a large enough effect in the repeat runs; inconclusive = weak or mixed curves; inactive = no such curve, though single readings can be large; an effect the other way counts as inactive or inconclusive; also: potency is read from the fitted curve at half-maximal effect; nearly all actives have a fitted effect of over 55% in size)
# Summary of the method: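 P450-Glo CYP2D6 system: proluciferin substrate converted by enzyme to luciferin, read by luminescence proportional to activity. Enzyme-substrate mix with compound 10 min at room temperature, then NADPH regeneration 1 h before detection reagent.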
# [7] = biological target: Cytochrome P450 2C9 (Homo sapiens) (UniProt P11712); test: Cytochrome P450 family 2 subfamily C member 9 (CYP2C9) small molecule antagonists: luciferase biochemical (cell-free) qHTS assay (AID 1645842; active = well fitted curve in the direction sought with a large enough effect in the repeat runs; inconclusive = weak or mixed curves; inactive = no such curve, though single readings can be large; an effect the other way counts as inactive or inconclusive; also: potency is read from the fitted curve at half-maximal effect; nearly all actives have a fitted effect of over 55% in size)
# Summary of the method: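 P450-Glo CYP2C9 system: proluciferin substrate with enzyme in mix containing 0.4% BSA, 10 min at room temperature, then NADPH regeneration solution added and incubated 1 h at 37C. Detection reagent stopped reaction; luminescence read after 20 min as RLU.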
# MKL-1 = test: qHTS assay to identify novel small-molecules to repurpose for Merkel cell carcinoma treatment (AID 1296009); settings: MCC and control cell lines, CellTiter-Glo viability, 72 h; activity change, negative = cytotoxicity: at 46 µM (top of the series); also: potency is read from the fitted curve at half-maximal effect; nearly all actives have a fitted effect of over 60% in size
# Summary of the method: (§2)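 Cell viability measured by CellTiter-Glo following 72 hr compound treatment at 37 degree celsius, with NPC and MIPE libraries tested in 8- and 11-point concentration series.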
# WaGa = test: as above; settings: MCC and control cell lines, CellTiter-Glo viability, 72 h; series mostly up to 46 µM
# Summary of the method: as §2
# HeLa = test: Primary qHTS to identify gynecologic anti-cancer compounds using libraries of approved drugs and bioactive compounds (AID 1345084); settings: Gynecologic cancer cell panel viability, ATPlite luminescence, 48 h; series mostly up to 57.5 µM; also: potency is read from the fitted curve at half-maximal effect; nearly all actives have a fitted effect of over 55% in size
# Summary of the method: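 Cytotoxicity screen measuring ATP content by luciferase luminescence. Each compound is applied at five concentrations for 48 h at 37 C with 5% CO2.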
# [8] = qHTS of pediatric cancer cell lines to identify multiple opportunities for drug repurposing: Primary screen for BT-37 cells (AID 1347094); also: potency is read from the fitted curve at half-maximal effect
# Summary of the method: (§3)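 ATP-based luminescence (CellTiter-Glo) quantifies viability after a 48-hour exposure. Compounds are dosed across 8 or 11 final concentrations; DMSO and 2.3 µM bortezomib serve as controls.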
# [9] = qHTS of pediatric cancer cell lines to identify multiple opportunities for drug repurposing: Primary screen for NB-EBc1 cells (AID 1347095); also: potency is read from the fitted curve at half-maximal effect
# Summary of the method: as §3
# [10] = qHTS of pediatric cancer cell lines to identify multiple opportunities for drug repurposing: Primary screen for Saos-2 cells (AID 1347097); settings: Saos-2 viability, CellTiter-Glo ATP luminescence, 48 h; activity change, negative = cytotoxic: at 46 µM (top of the series); also: potency is read from the fitted curve at half-maximal effect; nearly all actives have a fitted effect of over 40% in size
# Summary of the method: as §3
# [11] = qHTS of pediatric cancer cell lines to identify multiple opportunities for drug repurposing: Primary screen for NB1643 cells (AID 1347099); also: potency is read from the fitted curve at half-maximal effect; nearly all actives have a fitted effect of over 50% in size
# Summary of the method: as §3
# [12] = qHTS of pediatric cancer cell lines to identify multiple opportunities for drug repurposing: Primary screen for Rh18 cells (AID 1347102); also: potency is read from the fitted curve at half-maximal effect; nearly all actives have a fitted effect of over 65% in size
# Summary of the method: as §1
# [13] = Primary qHTS for small molecule stabilizers of the endoplasmic reticulum resident proteome: Secreted ER Calcium Modulated Protein (SERCaMP) assay (AID 1508630); settings: SH-SY5Y GLuc-SERCaMP (Gaussia luciferase released on ER calcium loss) secretion, thapsigargin, luminescence; series mostly up to 38.4 µM; also: potency is read from the fitted curve at half-maximal effect
# Summary of the method: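 The SH-SY5Y reporter protocol was run at 3 concentrations up to 38.3 uM (primary) or 11 concentrations (follow-up): 16 h compound, 100 nM thapsigargin for 4 h, then extracellular luciferase luminescence.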
# [14] = A High-Content qHTS Against Drug Library for the Identification of Small Molecules that Inhibit DYT1 Early Onset Primary Dystonia-Associated Cell Pathology (AID 1645839; calls by dose curve; also: potency is read from the fitted curve at half-maximal effect)
# Summary of the method: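 High-content imaging quantified EGFP-TorsinA mislocalization in HEK293-derived cells inducibly expressing DYT1 mutant torsinA, after 48 h exposure to compound given together with tetracycline induction. Cell count served as a toxicity channel alongside %pathology.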
# UISO = test: qHTS assay to identify novel small-molecules to repurpose for Merkel cell carcinoma treatment (AID 1296009); settings: MCC and control cell lines, CellTiter-Glo viability, 72 h; activity change, negative = cytotoxicity: at 46 µM (top of the series); also: potency is read from the fitted curve at half-maximal effect; nearly all actives have a fitted effect of over 60% in size
# Summary of the method: as §2
# [15] = Primary redox qHTS assay for identification of artifact compounds. (AID 1845223); also: potency is read from the fitted curve at half-maximal effect
# Summary of the method: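 Redox-cycling detection via DTT (250 uM final) oxidation coupled to Amplex Red (25 uM)/HRP (250 mU/mL) in HBSS. 15 min preincubation plus 30 min after DTT, room temperature. Ex/Em 525/598 nm; 4-parameter Hill fit against DMSO and 10 uM DA3003.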
# [16] = qHTS of pediatric cancer cell lines to identify multiple opportunities for drug repurposing: Primary screen for SJ-GBM2 cells (AID 1347091); also: potency is read from the fitted curve at half-maximal effect
# Summary of the method: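 Cell viability, CellTiter-Glo luminescence; 500-1,000 cells/well, 8- or 11-point titration, 48 h compound exposure at 37 degrees C, 5% CO2. Controls: DMSO neutral, bortezomib 2.3 µM final as positive.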
# Tags tell the direction and shape of the fitted curve.
# Chain of UniProt P10635 (P10635 whole entry, looked up): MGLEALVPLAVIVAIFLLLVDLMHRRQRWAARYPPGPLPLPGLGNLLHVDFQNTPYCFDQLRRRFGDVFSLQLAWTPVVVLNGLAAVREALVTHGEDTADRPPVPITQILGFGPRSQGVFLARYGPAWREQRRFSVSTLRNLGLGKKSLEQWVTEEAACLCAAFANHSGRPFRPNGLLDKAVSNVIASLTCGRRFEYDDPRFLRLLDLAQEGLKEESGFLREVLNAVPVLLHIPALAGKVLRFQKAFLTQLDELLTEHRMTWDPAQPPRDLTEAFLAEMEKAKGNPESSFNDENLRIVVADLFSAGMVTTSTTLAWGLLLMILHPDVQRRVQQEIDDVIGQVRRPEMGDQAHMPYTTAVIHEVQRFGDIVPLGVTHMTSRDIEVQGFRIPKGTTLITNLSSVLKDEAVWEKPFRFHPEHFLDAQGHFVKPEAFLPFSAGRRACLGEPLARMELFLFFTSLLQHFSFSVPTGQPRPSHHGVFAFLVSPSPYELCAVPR
# Chain of UniProt P11712 (P11712 whole entry, looked up): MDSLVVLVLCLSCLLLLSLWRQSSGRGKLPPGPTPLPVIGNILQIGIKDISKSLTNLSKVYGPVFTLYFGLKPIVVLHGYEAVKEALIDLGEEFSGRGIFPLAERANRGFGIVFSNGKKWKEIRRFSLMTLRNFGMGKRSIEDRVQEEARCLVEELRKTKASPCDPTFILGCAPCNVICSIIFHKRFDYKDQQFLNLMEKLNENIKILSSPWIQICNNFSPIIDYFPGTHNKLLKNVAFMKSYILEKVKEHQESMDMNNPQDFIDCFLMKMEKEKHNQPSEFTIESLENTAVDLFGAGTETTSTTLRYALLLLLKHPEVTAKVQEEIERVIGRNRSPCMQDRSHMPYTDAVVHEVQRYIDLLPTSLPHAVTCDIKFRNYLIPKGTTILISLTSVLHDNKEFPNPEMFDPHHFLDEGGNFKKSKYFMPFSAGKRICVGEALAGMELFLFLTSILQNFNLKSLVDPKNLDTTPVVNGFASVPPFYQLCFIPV
structure (smiles),measurement,setting,value
CCn1nnc2c(N3CCOCC3)nc(-c3ccc(NC(=O)Nc4ccc(C(=O)N5CCN(C)CC5)cc4)cc3)nc21,Potency,[1],active: 93.5 nM
same,Potency,[2],active: 5.9 nM
same,Potency,[3],"inconclusive: 0.0109 µM [cytotoxic, full curve]"
same,Potency,[4],active: 27.3 nM
same,Potency,[5],inactive
same,Potency,[6],"inconclusive: 23.9 µM [inhibitor, partial curve, poor fit]"
same,Potency,[7],"inconclusive: 30.1 µM [inhibitor, single point]"
same,Potency,MKL-1,"inconclusive: 0.0526 µM [inhibitor, full curve]"
same,Potency,WaGa,"inconclusive: 0.0118 µM [inhibitor, full curve]"
same,Potency,HeLa,"inconclusive: 1 µM [cytotoxic, full curve, poor fit]"
Nc1cccc2c(N)cccc12,Potency,[8],"inconclusive: 28.2 µM [cytotoxic, partial curve]"
same,Potency,[9],"inconclusive: 68.6 µM [cytotoxic, partial curve, poor fit]"
same,Potency,[10],active: 27.3 µM
same,Potency,[11],"inconclusive: 27.3 µM [cytotoxic, partial curve]"
same,Potency,[3],"inconclusive: 28.2 µM [cytotoxic, partial curve, poor fit]"
same,Potency,[12],"inconclusive: 24.3 µM [cytotoxic, partial curve]"
same,Potency,[13],"inconclusive: 28.2 µM [inhibitor, partial curve, poor fit]"
same,Potency,[14],"inconclusive: 7.94 µM [inhibitor, partial curve]"
same,Potency,MKL-1,active: 6.11 µM
same,Potency,UISO,active: 10.9 µM
same,Potency,WaGa,active: 19.3 µM
COc1ccc(C#Cc2ccc(C(=O)N3CCC[C@@H](CO)C3)cc2)cc1,Potency,[6],"inconclusive: 33.8 µM [inhibitor, single point]"
same,Potency,[15],"inconclusive: 37.7 µM [activator, partial curve, poor fit]"
C=C1/C(=C/C=C2\CCC[C@@]3(C)C2CCC3[C@H](C)/C=C/[C@@H](O)C2CC2)C[C@@H](O)C[C@@H]1O (some centres undefined),Potency,[15],"inconclusive: 15 µM [activator, partial curve, poor fit]"
Cc1cc(-c2cc(OC(=O)c3ccccc3)ccc2Cl)cc2nnc(Nc3ccc(OCCN4CCCC4)cc3)nc12,Potency,[6],"inconclusive: 3.29 µM [inhibitor, full curve]"
N#Cc1c(C2CCNCC2)cc(-c2c(O)cccc2OCC2CC2)nc1N,Potency,[16],"inconclusive: 16.6 µM [cytotoxic, partial curve]"
same,Potency,[2],active: 1050 nM
same,Potency,[8],"inconclusive: 21.7 µM [cytotoxic, partial curve]"
same,Potency,[9],active: 18.7 µM
same,Potency,[10],"inconclusive: 18.7 µM [cytotoxic, partial curve]"
same,Potency,[11],"inconclusive: 18.7 µM [cytotoxic, partial curve]"
same,Potency,[3],"inconclusive: 24.3 µM [cytotoxic, partial curve]"
same,Potency,[12],"inconclusive: 18.7 µM [cytotoxic, single point]"
same,Potency,[13],inactive
same,Potency,[6],active: 0.674 µM
same,Potency,UISO,"inconclusive: 16.6 µM [inhibitor, partial curve]"
same,Potency,WaGa,"inconclusive: 18.7 µM [inhibitor, partial curve, poor fit]"
C[C@@H]1C[C@H]2[C@@H]3CCC4=CC(=O)C=C[C@]4(C)[C@@]3(Cl)[C@@H](O)C[C@]2(C)[C@@]1(OC(=O)c1ccco1)C(=O)CCl,Potency,[16],"inconclusive: 29.9 µM [cytotoxic, single point]"
same,Potency,[1],"inconclusive: 26.6 µM [cytotoxic, single point] and active: 590 nM"
same,Potency,[2],"inconclusive: 33.5 µM [cytotoxic, single point] and active: 2.96 µM"
same,Potency,[8],"inconclusive: 38.9 µM [cytotoxic, single point] and active: 21.7 µM"
same,Potency,[9],"inconclusive: 23.7 µM [cytotoxic, single point] and active: 11.8 µM"
same,Potency,[10],"inconclusive: 15 µM [cytotoxic, single point] and active: 14.8 µM"
same,Potency,[11],"inconclusive: 16.8 µM [cytotoxic, single point]"
same,Potency,[3],active: 27.6 µM and active: 9.68 µM
same,Potency,[12],"inconclusive: 18.8 µM [cytotoxic, single point] and inconclusive: 26.4 µM [cytotoxic, single point]"
same,Potency,[4],active: 15.5 µM and active: 15.3 µM
same,Potency,[13],"inconclusive: 25.1 µM [inhibitor, single point] and inconclusive: 7.49 µM [inhibitor, full curve, poor fit]"
same,Potency,[14],"inconclusive: 6.31 µM [inhibitor, full curve, poor fit]"
same,Potency,[6],active: 2.45 µM
same,Potency,[7],active: 4.36 µM
same,Potency,MKL-1,"inconclusive: 26.6 µM [inhibitor, partial curve]"
same,Potency,UISO,"inconclusive: 21.1 µM [inhibitor, single point]"
same,Potency,WaGa,active: 16.6 µM
